# According to the supplement of paper PMC9135407:
# Where “and” joins values, the source holds several entries; their conditions need not be identical. Equal entries are not always repeated. Structures can show the parent of a compound that is named as a salt. The whole screen tested about 5,800 compounds, of which about 620 (11%) showed activity.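 Rule for the calls: active = score above a cut-off or among the top three wells of a plate; in these data no inactive exceeds 0.85.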 The entries are a selection whose mix differs from that of the whole data set.
# Test system: primary human hepatic stellate cells (donor 1)
# Experiment: scaled lipid accumulation score (0 = DMSO-like, 1 = nortriptyline-like); higher = stronger HSC inactivation (lipid re-accumulation), active = hit call of the paper
# Settings: 48 h
# [1] = library stock concentration: 3.33 mM
# [2] = library stock concentration: 10 mM
# [3] = library stock concentration: 1 mM
# [4] = library stock concentration: 80 uM
# [5] = library stock concentration: 400 uM
# [6] = library stock concentration: 2 mM
structure (smiles),measurement,setting,value
C[C@@H]1O[C@@H](O[C@H]2[C@H](Oc3cc(O)c4c(c3)O[C@H](c3ccc(O)cc3)CC4=O)O[C@H](CO)[C@@H](O)[C@@H]2O)[C@H](O)[C@H](O)[C@H]1O [Naringin],scaled lipid accumulation score,[1],inactive: 0.01
same,scaled lipid accumulation score,[2],inactive: ≤ 0
C[C@@H]1O[C@@H](O[C@H]2[C@H](Oc3cc(O)c4c(c3)O[C@H](c3ccc(O)cc3)CC4=O)O[C@H](CO)[C@@H](O)[C@@H]2O)[C@H](O)[C@H](O)[C@H]1O [Naringin hydrate],scaled lipid accumulation score,,inactive: ≤ 0
Cn1cc(C2=C(c3cn(CCCSC(=N)N)c4ccccc34)C(=O)NC2=O)c2ccccc21 [Bisindolylmaleimide IX (mesylate)],scaled lipid accumulation score,[3],inactive: ≤ 0
Cn1cc(C2=C(c3cn(CCCSC(=N)N)c4ccccc34)C(=O)NC2=O)c2ccccc21 [Ro 31-8220 mesylate],scaled lipid accumulation score,[2],inactive: ≤ -0.001
Cn1cc(C2=C(c3cn(CCCSC(=N)N)c4ccccc34)C(=O)NC2=O)c2ccccc21,scaled lipid accumulation score,[4],inactive: 0.068
same,scaled lipid accumulation score,[5],inactive: 0.267
same,scaled lipid accumulation score,[6],inactive: ≤ 0
same,scaled lipid accumulation score,[1],inactive: ≤ 0
same,scaled lipid accumulation score,[2],inactive: 0.848
same,scaled lipid accumulation score,library stock concentration: 10.9 mM,inactive: 0.832
Cn1cc(C2=C(c3cn(CCCSC(=N)N)c4ccccc34)C(=O)NC2=O)c2ccccc21 [Ro 31-8220 Mesylate],scaled lipid accumulation score,[1],inactive: ≤ -0.009
same,scaled lipid accumulation score,[2],inactive: 0.514
Nc1ccccc1NC(=O)CCCCCCC(=O)Nc1ccccc1,scaled lipid accumulation score,[3],inactive: 0.001
C=COCC(F)(F)F,scaled lipid accumulation score,[2],inactive: ≤ 0
COc1cc2ncn(-c3cc(OCc4ccccc4S(C)(=O)=O)c(C#N)s3)c2cc1OC [IKK-3 Inhibitor IX],scaled lipid accumulation score,[1],inactive: ≤ 0
COc1nc(C)cnc1NS(=O)(=O)c1cccnc1-c1ccc(-c2nnco2)cc1 [Zibotentan (ZD4054)],scaled lipid accumulation score,[1],inactive: ≤ 0
same,scaled lipid accumulation score,[2],inactive: ≤ 0
C/C(O)=C(\C#N)C(=O)Nc1ccc(C(F)(F)F)cc1 [Teriflunomide],scaled lipid accumulation score,[1],inactive: ≤ 0
same,scaled lipid accumulation score,[2],inactive: ≤ -0.001
Cc1oc(=O)oc1CN1CCN(c2cc3c(cc2F)c(=O)c(C(=O)O)c2n3C(C)S2)CC1 (centres undefined),scaled lipid accumulation score,[2],inactive: ≤ 0
Cn1cc(/C=C/C(=O)c2cccc(F)c2)cc1/C=C/C(=O)NO,scaled lipid accumulation score,[4],inactive: ≤ 0
same,scaled lipid accumulation score,[5],inactive: ≤ 0
same,scaled lipid accumulation score,[6],inactive: ≤ 0
same,scaled lipid accumulation score,[1],inactive: 0.058
same,scaled lipid accumulation score,[2],inactive: 0.429 and inactive: 0.113
N=C(N=C(N)N)N1CCOCC1 [Moroxidine hydrochloride],scaled lipid accumulation score,,inactive: ≤ 0
Nc1nccc2c1ncn2C1C=C(CO)C(O)C1O (centres undefined) [3-Deazaneplanocin A (DZNeP)],scaled lipid accumulation score,[1],inactive: ≤ -0.009
same,scaled lipid accumulation score,[2],inactive: ≤ 0
CC(=O)OCC(=O)[C@@]12OC3(CCCC3)O[C@@H]1C[C@H]1[C@@H]3CCC4=CC(=O)C=C[C@]4(C)[C@@]3(F)[C@@H](O)C[C@@]12C,scaled lipid accumulation score,[2],inactive: ≤ 0
CC(=O)OCC(=O)[C@@]12OC3(CCCC3)O[C@@H]1C[C@H]1[C@@H]3CCC4=CC(=O)C=C[C@]4(C)[C@@]3(F)[C@@H](O)C[C@@]12C [Amcinonide],scaled lipid accumulation score,library stock concentration: 4 mM,inactive: ≤ 0
same,scaled lipid accumulation score,[2],inactive: ≤ -0.002
Cc1nc(N(C)C(=O)Cc2ccc(-c3ccccn3)cc2)sc1S(N)(=O)=O [Pritelivir (BAY 57-1293)],scaled lipid accumulation score,[1],inactive: ≤ -0.009
same,scaled lipid accumulation score,[2],inactive: ≤ 0
"C=C1CCC(O)C/C1=C\C=C1\CCCC2(C)C1CCC2C(C)CCC(O)C(C)(C)O (centres undefined) [24,25-Dihydroxyvitamin D3]",scaled lipid accumulation score,[3],inactive: 0.016
CC(Cc1ccc(O)c(O)c1)C(C)Cc1ccc(O)c(O)c1 (centres undefined) [Nordihydroguaiaretic Acid],scaled lipid accumulation score,[3],inactive: 0.042
C[C@@H](C(=O)O)c1ccc(-c2ccccc2)c(F)c1 [(R)-Flurbiprofen],scaled lipid accumulation score,[3],inactive: 0.021
C(=C(\CCNC1)/C1)(/c2c(cccn2)CC3)\c(ccc(Cl)c4)c34 [Desloratadine],scaled lipid accumulation score,library stock concentration: 6.4 mM,active: 1.03
CCC(CC)(NC(=O)C(C)C)C(=O)N[C@@H](CCCN=C(N)N)C(=O)NC1(C(=O)NC(c2ccc(F)cc2)c2ccc(F)cc2)CCCC1,scaled lipid accumulation score,[1],inactive: ≤ -0.009
same,scaled lipid accumulation score,[2],inactive: ≤ 0
O=C(O)Cc1cc(I)c(Oc2ccc(O)c(I)c2)c(I)c1,scaled lipid accumulation score,[2],inactive: 0.002
O=C(O)Cc1cc(I)c(Oc2ccc(O)c(I)c2)c(I)c1 [Tiratricol],scaled lipid accumulation score,[1],inactive: ≤ 0
same,scaled lipid accumulation score,[2],inactive: ≤ -0.001
"O=C(O)Cc1cc(I)c(Oc2ccc(O)c(I)c2)c(I)c1 [Tiratricol, 3,3',5-triiodothyroacetic acid]",scaled lipid accumulation score,,inactive: 0.108
COCCCOc1ccnc(C[S+]([O-])c2nc3ccccc3[nH]2)c1C (centres undefined),scaled lipid accumulation score,[2],inactive: ≤ 0
COCCCOc1ccnc(C[S+]([O-])c2nc3ccccc3[nH]2)c1C (centres undefined) [Rabeprazole sodium],scaled lipid accumulation score,library stock concentration: 5.2 mM,inactive: ≤ 0
CC(C)C1C2CCC(C2)C1N (centres undefined),scaled lipid accumulation score,[2],inactive: 0.338
Nc1c(S(=O)(=O)O)cc(Nc2ccc(Nc3nc(Cl)nc(Nc4cccc(S(=O)(=O)O)c4)n3)c(S(=O)(=O)O)c2)c2c1C(=O)c1ccccc1C2=O [Reactive Blue 2],scaled lipid accumulation score,[2],inactive: ≤ 0
CO[C@@H]1[C@H](O)[C@@H](CO)O[C@H]1n1cnc2c(NC3CCCCC3)ncnc21,scaled lipid accumulation score,[2],inactive: ≤ -0.001
Cc1c(C)c2c(c(C)c1O)CCC(C)(CCCC(C)C(=O)O)O2 (centres undefined),scaled lipid accumulation score,[3],inactive: ≤ 0
Cc1ccc(C(=O)C(C)CN2CCCCC2)cc1 (centres undefined) [Tolperisone hydrochloride],scaled lipid accumulation score,[2],inactive: ≤ 0
Cc1ccc(C(=O)C(C)CN2CCCCC2)cc1 (centres undefined) [Tolperisone HCl],scaled lipid accumulation score,[1],inactive: ≤ 0
same,scaled lipid accumulation score,[2],inactive: ≤ -0.001
Cc1cc(CN2CCN(c3c(Br)cnc4[nH]c(-c5ccc(N6CCN(C)CC6)cc5)nc34)CC2)no1,scaled lipid accumulation score,[1],active: 0.857
COc1ccc(/C=C/c2cc(Cl)cc(Cl)c2)cc1,scaled lipid accumulation score,[3],inactive: ≤ 0
O=C(CCCCC(=O)Nc1c(I)cc(I)c(C(=O)O)c1I)Nc1c(I)cc(I)c(C(=O)O)c1I [Iodipamide],scaled lipid accumulation score,,inactive: 0.041
same,scaled lipid accumulation score,[2],inactive: ≤ 0
CN(C)Cc1c(C(=O)NCCOc2ccc(C(=O)NO)cc2)oc2ccccc12,scaled lipid accumulation score,[1],active: 0.855
same,scaled lipid accumulation score,[2],active: 1.01
N=C(N)SCCN [2-(2-Aminoethyl)isothiourea dihydrobromide],scaled lipid accumulation score,[2],inactive: 0.026
N=C(N)SCCN [S-(2-aminoethyl) Isothiourea (dihydrobromide)],scaled lipid accumulation score,[3],inactive: 0.085
Nc1nccc(-c2ccc3noc(-c4ccc(Cl)cc4)c3c2)n1 [PIM 1 Inhibitor 2],scaled lipid accumulation score,[2],inactive: ≤ 0
CCCCC1C(=O)N(c2ccccc2)N(c2ccccc2)C1=O [Phenylbutazone],scaled lipid accumulation score,[3],inactive: ≤ 0
same,scaled lipid accumulation score,[1],inactive: ≤ 0
same,scaled lipid accumulation score,[2],inactive: ≤ 0
CN(C)c1cc(NC(=O)CNC(C)(C)C)c(O)c2c1CC1CC3C(N(C)C)C(=O)C(C(N)=O)=C(O)C3(O)C(=O)C1=C2O (centres undefined) [Tigecycline],scaled lipid accumulation score,[1],inactive: ≤ 0
same,scaled lipid accumulation score,[2],inactive: ≤ 0
O=C(Nc1ccc2[nH]nc(-c3ccncc3)c2c1)[C@@H]1CCN(CC(=O)N2CCN(c3ccc(-c4ncccn4)cc3)CC2)C1,scaled lipid accumulation score,[4],inactive: ≤ -0.001
same,scaled lipid accumulation score,[5],inactive: ≤ -0.001
same,scaled lipid accumulation score,[6],inactive: ≤ -0.001
CCCc1nc2c(C)cc(-c3nc4ccccc4n3C)cc2n1Cc1ccc(-c2ccccc2C(=O)O)cc1,scaled lipid accumulation score,[2],inactive: ≤ 0
CCCc1nc2c(C)cc(-c3nc4ccccc4n3C)cc2n1Cc1ccc(-c2ccccc2C(=O)O)cc1 [Telmisartan],scaled lipid accumulation score,[1],inactive: ≤ 0
same,scaled lipid accumulation score,[2],inactive: ≤ 0 and inactive: 0.042
"O=C(O)Cc1ccc(O)c(O)c1 [3,4-Dihydroxyphenylacetic acid]",scaled lipid accumulation score,[2],inactive: ≤ -0.07
CNCCCCOc1ccccc1Cc1ccccc1 [Bifemelane],scaled lipid accumulation score,[2],active: 1.08
COCCCOc1cc(C[C@@H](C[C@H](N)[C@@H](O)C[C@H](C(=O)NCC(C)(C)C(N)=O)C(C)C)C(C)C)ccc1OC [Aliskiren Hemifumarate],scaled lipid accumulation score,[1],inactive: 0.014
same,scaled lipid accumulation score,[2],inactive: 0.027
COCCCOc1cc(C[C@@H](C[C@H](N)[C@@H](O)C[C@H](C(=O)NCC(C)(C)C(N)=O)C(C)C)C(C)C)ccc1OC,scaled lipid accumulation score,[2],inactive: ≤ 0
CCCCOC(=O)c1ccc(O)cc1 [Butylparaben],scaled lipid accumulation score,,inactive: ≤ 0
C#C[C@]1(OC(C)=O)CC[C@H]2[C@@H]3CCC4=CC(=O)CC[C@@H]4[C@H]3CC[C@@]21C,scaled lipid accumulation score,[2],inactive: 0.369
C#C[C@]1(OC(C)=O)CC[C@H]2[C@@H]3CCC4=CC(=O)CC[C@@H]4[C@H]3CC[C@@]21C [Norethindrone acetate],scaled lipid accumulation score,library stock concentration: 5.9 mM,inactive: ≤ -0.001
same,scaled lipid accumulation score,[2],inactive: ≤ 0
OCCC#Cc1nc(-c2ccc(F)cc2)c(-c2ccncc2)n1CCCc1ccccc1,scaled lipid accumulation score,[5],inactive: ≤ -0.005
same,scaled lipid accumulation score,[6],inactive: ≤ -0.005
same,scaled lipid accumulation score,[2],inactive: 0.668
CCCCC[C@](C)(O)/C=C/[C@@H]1[C@@H](C/C=C\CCCC(=O)O)[C@@H](O)C[C@H]1O [15(S)-15-methyl Prostaglandin F2.alpha.],scaled lipid accumulation score,[3],inactive: ≤ 0
CC(=O)/N=c1/sc(S(N)(=O)=O)nn1C [Methazolamide],scaled lipid accumulation score,,inactive: ≤ 0
same,scaled lipid accumulation score,[1],inactive: ≤ 0
same,scaled lipid accumulation score,[2],inactive: ≤ -0.001 and inactive: ≤ -0.014 and inactive: ≤ 0
Cc1ccc(C(=O)N(CCCN)[C@@H](c2nc3cc(Cl)ccc3c(=O)n2Cc2ccccc2)C(C)C)cc1,scaled lipid accumulation score,[1],inactive: 0.21
same,scaled lipid accumulation score,[2],inactive: 0.262
N=C(N)N1CCc2ccccc2C1 [Debrisoquin sulfate],scaled lipid accumulation score,,inactive: ≤ 0
same,scaled lipid accumulation score,library stock concentration: 7.3 mM,inactive: ≤ 0
same,scaled lipid accumulation score,[2],inactive: ≤ -0.07
Cc1ccc2nc(NCCN)c3ncc(C)n3c2c1,scaled lipid accumulation score,[4],inactive: ≤ 0
same,scaled lipid accumulation score,[5],inactive: ≤ 0
same,scaled lipid accumulation score,[6],inactive: ≤ 0
same,scaled lipid accumulation score,[1],inactive: ≤ -0.009
same,scaled lipid accumulation score,[2],inactive: 0.422 and inactive: 0.531
